Assay results reported in PubChem BioAssay AID1508623 (National Center for Advancing Translational Sciences (NCATS), 2021).
The campaign covered roughly 48,000 compounds. About 450 (0.94%) were called active. Another 19% or so got no clear call; they are omitted. Calls follow the shape of the dose curve; as a rule, active = well fitted inhibition curve with a large enough effect; inconclusive = small, poorly fitted or top-dose-only effect; inactive = no such curve, though single readings can be large or run the other way. The list shows a part of the results.

Assay: Primary qHTS for Identification of Small Molecule Inhibitors of Huntingtin Promoter Activity; also: nearly all actives have a fitted effect of over 50% in size
Conditions: HEK293 HTT promoter firefly luciferase reporter (activity 0% = vehicle and -100% = no light), 24 h; series mostly up to 57.5 µM; activity change, negative = inhibition: at the top concentration
In short: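 Quantitative HTS used concentration series of up to 57.5 uM final on HEK293 luciferase reporter cells, 24 h at 37 degrees C. Readout was Dual-Glo firefly luminescence.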

Activity change, negative = inhibition, inactive:
CCc1ccc2occ(CC(=O)Nc3c(C(=O)c4ccc(C)cc4)oc4ccccc34)c2c1 -8.09%
COc1ccc(S(=O)(=O)Nc2c(C)nc3nc[nH]n3c2=O)cc1 -3.55%
O=[N+]([O-])c1cccc(S(=O)(=O)NCCNS(=O)(=O)c2cccc([N+](=O)[O-])c2)c1 -16.6%
Cc1ccc2c(CNCc3ccc(C)o3)c(C(=O)O)n(Cc3ccccc3C)c2c1 -19.8%
Cc1cc(S(=O)(=O)C(CNC(=O)c2ccc(F)c(F)c2)c2cccs2)ccc1F (stereo not given) -17.5%
Cc1ccc(S(=O)(=O)n2nc(-c3ccc(Cl)cc3)nc2NCc2ccc(F)cc2)cc1 -5.71%
Cc1cc(C)c2c(CC(=O)Nc3ccc(S(=O)(=O)Nc4nc(C)cc(C)n4)cc3)coc2c1 -26.5%
Cc1ccc(-c2ccc(=O)n(CC(=O)NCCc3ccccc3)n2)cc1 -0.967%
O=S(=O)(NCCc1csc2nc(-c3ccccc3)nn12)c1cc(F)ccc1F -12.5%
Cc1ccc(-n2ncc3c(Nc4cccc(C(=O)O)c4)ncnc32)cc1 -11.9%
CCCCn1cnc2cc(NCc3ccccc3Cl)ccc21 -24%
Cc1ccc(NC(=O)C(=O)NCC(c2cccnc2)N2CCN(Cc3ccccc3)CC2)cc1F (stereo not given) -32.3%
CCCSCCCNC(=O)C1CCN(c2nc3ccccc3nc2C(F)(F)F)CC1 -25.7%
O=C(Cc1cccs1)NC1CC(=O)N(c2ccc(F)cc2)C1 (stereo not given) -1.81%
COc1ccc(-c2nc3ccccc3s2)cc1NC(=O)c1ccccc1F -0.514%
CSc1cccc(NC(=O)Nc2ccccc2OCc2cc(=O)n3cc(C)ccc3n2)c1 36.4%
CCc1ccc(S(=O)(=O)Nc2ccc3c(c2)n(C)c(=O)c(=O)n3C)cc1 -27.7%
Cc1cc(N)c2cc(NC(=O)Nc3ccc4nc(C)cc(N)c4c3)ccc2n1 -6.09%
COc1ccc(C(=O)Nc2ccc3nc(SCC(=O)N4CCc5ccccc54)sc3c2)cc1 -17%
COc1ccc(NC(=O)CCNS(=O)(=O)c2ccc3c(c2)CCCC(=O)N3)cc1Cl -20.1%
O=C(NCc1ccc(Cl)cc1)NCc1noc2ccccc12 18.5%
COC(=O)c1ccccc1NC(=O)C1=CC(c2cccs2)=NS(=O)(=O)N1C -20.5%
COc1ccc(-n2nc3cc(C)c(NC(=O)c4ccc(-c5ccc(Cl)cc5)o4)cc3n2)cc1 4.1%
Cc1cc(OCC(=O)Nc2cc(-c3nc4ncccc4o3)ccc2C)ccc1Cl 12.5%
COc1ccc(OCc2ccc(-c3nc(C#N)c(NC(C)c4ccccc4)o3)o2)cc1 (stereo not given) -22.4%
Cc1cccc(C)c1Nc1c(-c2ccccn2)nc2c(C)cccn12 -36.9%
CCOc1ccc2nc(N3CCCC(C(=O)NCCc4ccc(OCC)c(OCC)c4)C3)sc2c1 (stereo not given) 16.3%
Cc1nn(CC(=O)Nc2ccc(OC(F)(F)F)cc2)c(=O)c2c(C)n(-c3ccc(Cl)cc3)nc12 -0.926%
CCSc1ncc(Cl)c(C(=O)Nc2nnc(CC)s2)n1 -4.64%
Cc1cccc(NC(=O)CSc2ncc(-c3ccccc3)[nH]2)c1C 20.1%
O=C(c1ccccc1F)N1c2ncnn2C2(CCCCC2)[C@@H]2CCCC[C@@H]21 19.1%
Cc1cccc(Nc2nc(N)nc(N)c2S(=O)(=O)c2ccccc2)c1 -14.7%
CCC(C(=O)NCCc1ccccc1)n1nc(C)c2sc3ccccc3c2c1=O (stereo not given) -7.86%
COc1ccc(C2=C(C)C(N3CCC(C(=O)Nc4ccccc4F)CC3)=NS2(=O)=O)cc1 -26.6%
Cc1c(C)n(Cc2ccc(F)cc2)c2ccc(C(=O)N3CCN(c4ccc(F)cc4)CC3)cc12 -21.7%
CCOc1ccc2oc(=O)cc(CN3CCN(C(=O)c4ccc(OC)c(OC)c4)CC3)c2c1 -6.26%
COc1ccc(CNC(=O)c2cc3c(=O)n(Cc4cccnc4)ccc3nc2C)cc1 -6.16%
COc1ccccc1CNC(=O)c1cc2c(=O)oc3ccc(C)cc3c2s1 -1.74%
CCCNS(=O)(=O)c1cc(-c2nn3c(C)nnc3c3ccccc23)ccc1C -3.7%
Cc1ccc(-n2c(=O)c3c4c(sc3n(Cc3cc(=O)n5cc(Cl)ccc5n3)c2=O)CCC4)cc1C -6.32%
CCc1ccc(-c2nn(CC(=O)NC3CCCCC3)c3c2cnc2ccc(F)cc23)cc1 -5.15%
CCOc1ccccc1NC(=O)C1CCN(S(=O)(=O)c2ccc3[nH]c(=O)oc3c2)CC1 -12.5%
CCc1cccc(OCC(=O)Nc2ccc(S(=O)(=O)Nc3ncccn3)cc2)c1 -23.3%
CC(C)(C)c1ccc(OCc2nc3ccccc3n2CCOc2ccccc2)cc1 -13.6%
Cc1cccc(C)c1OCc1nc2c3cnn(-c4ccccc4F)c3ncn2n1 -6.65%
CC(=O)c1ccc(S(=O)(=O)N2CCn3cccc3C2c2ccccc2F)cc1 (stereo not given) -12.1%
Cc1cc(C)cc(NC(=O)Cc2csc(C)n2)c1 -11%
CCC(C)NC(=O)c1c(C)oc2ncn(CC(C)C)c(=O)c12 (stereo not given) 3.66%
O=C(CCS(=O)(=O)c1cc(Br)cc2c1N(C(=O)C1CC1)CC2)N1CCN(c2cccc(Cl)c2)CC1 -8.43%
CCOc1ccccc1OCC1CNCCO1 (stereo not given) -4.45%
CCCCNC(=O)C1CCC(Cn2c(=O)c3sccc3n(Cc3ccccc3)c2=O)CC1 (stereo not given) 4.14%
O=C(Cn1c(=O)n(CCc2ccccc2)c(=O)c2cccnc21)Nc1ccc(F)cc1 21.4%
CCC(=O)N1CCc2cc(S(=O)(=O)NC(C(=O)NCCc3ccc(OC)c(OC)c3)C(C)C)ccc21 (stereo not given) -11.9%
Cc1cc(C)c(NC(=O)c2nc3ccccc3nc2N2CCCCC2)c(C)c1 -12.9%
CCCCNC(=O)CSc1nc2cc3c(cc2c(=O)n1CCCC(=O)NCCc1ccc(OC)c(OC)c1)OCO3 -15.4%
COc1cc(NC(=O)C2CCN(C(=O)c3sc4nc[nH]c(=O)c4c3C)CC2)cc(OC)c1OC 2.31%
Cc1cc(C(=O)N2CCN(c3ccccc3)CC2)c2c(C)nn(-c3cccc(F)c3)c2n1 -14%
Cc1ccc(N2C(=O)c3n[nH]c(C)c3C2c2ccc(Cl)cc2)cc1 (stereo not given) 38.1%
Cc1ccccc1CSc1nnc2[nH]c(=O)cc(-c3ccccc3)n12 -6.89%
Cc1ccc(CNC(=O)c2nn(-c3ccc(Cl)cc3)nc2CO)cc1 -22.2%
CCc1ccc(-n2c(=O)c3c4c(sc3n(Cc3cc(=O)n5c(C)cccc5n3)c2=O)CCC4)cc1 -3.65%
Cc1cc(C)cc(NC(=O)CSc2oc(-c3ccccc3)nc2S(=O)(=O)c2ccc(Cl)cc2)c1 -14.6%
CCOC(=O)c1ccccc1NC(=O)Cn1ncc2c1-c1ccccc1OC2 -2.07%
CC(C)OCCCNC(=O)C(=O)Nc1c2c(nn1-c1ccccc1)CS(=O)(=O)C2 -2.34%
CCc1ccccc1NS(=O)(=O)c1ccc2nc(-c3ccccc3)[nH]c2c1 -22.2%
CC(=O)NC(CS)C(=O)O (stereo not given) 1.18%
Cc1ccc2c(c1)N(CC(=O)NCCc1ccccc1)C(=O)CO2 -10.8%
CCOC(=O)c1c(C)[nH]c(C)c1S(=O)(=O)N1CCC(C(=O)Nc2ccc(OCC)cc2)CC1 -17.9%
CCCCn1cc(S(=O)(=O)c2cc(C)ccc2C)c(=O)c2cc(F)c(N3CCC(C)CC3)cc21 -20.9%
CCCC(=O)Nc1cc2nn(-c3ccccc3)nc2cc1C 77.7%
CCc1cccc(NC(=O)CN(c2ccc(C)c(C)c2)S(=O)(=O)c2ccsc2C(=O)OC)c1 -9.7%
Cc1ccc(C)c(N2CCN(C(=O)CN3C(=O)COc4ccc(S(=O)(=O)N5CCCC5)cc43)CC2)c1 -13.4%
COc1ccc(C(=O)NCC(c2ccco2)S(=O)(=O)c2ccc(F)cc2)cc1 (stereo not given) -33.7%
CCCCN(CCCC)CCCNC(=O)Cn1cc2c(n1)-c1c(oc(C(=O)N3CCCC3)c1C)CC2 -8.7%
CSc1ncc(C(=O)Nc2ccccc2C(F)(F)F)c(-c2ccccc2)n1 1.29%
CCCc1nc2nc(C)c(NS(=O)(=O)c3ccc(CC(C)C)cc3)c(=O)n2[nH]1 -12.4%
CCCn1c(CCC(=O)Nc2cc(C(=O)OC)cc(C(=O)OC)c2)nc2cccnc21 -16.8%
CCCn1c(CCC(=O)Nc2cc(OC)cc(OC)c2)nc2cccnc21 -17.8%
CCOC(=O)c1[nH]cnc1C(=O)Nc1cccc(OC)c1 -7.86%
Cc1cc(NC(=O)CCn2c(=O)c3cccn3c3cccnc32)ccc1Br 3.06%
NC(=O)Cc1cccc(C(=O)c2ccccc2)c1N
CCC(=O)N1c2ccccc2CC1C(=O)NCCc1cc(OC)c(OC)c(OC)c1 (stereo not given) 0%
CCCN1CCN(c2nnc(-n3cccc3C(=O)Nc3cc(Cl)ccc3C)s2)CC1 -24.5%
CCSc1ncc(Cl)c(C(=O)Nc2nc3ccc(S(C)(=O)=O)cc3s2)n1 -18.6%
Cc1ccc(NC(=O)C2CCCN(S(=O)(=O)c3cccc4nsnc34)C2)cc1C (stereo not given) -29.5%
